Variants at the background level are over-represented here.
B1: TPR 5TU (parent)
chain: GGAUCUUCUCGAUCUAACAAAAAAGACAAAUCUGCCACAAAGCUUGAGAGCAUCUUCGGAUGCAGAGGCGGCAGCCUUCGGUGGCGCGAUAGCGCCAACGUUCUCAACUAUGACACGCAAAACGCGUGCUCCGUUGAAUGGAGUUUAUCAUG

Variants of: B1
Assay: polymerase ribozyme fitness, log enrichment relative to wild type (log ratio); higher = more active; in vitro selection for triplet polymerase activity
Method in brief: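 The heterodimeric triplet polymerase ribozyme's subunits were each mutagenized into PCR-built libraries and transcribed. Every library was selected once, in triplicate, by annealing with a biotinylated primer, the partner subunit and triplets, incubating frozen at −7 °C, gel-excising extended constructs, capturing on streptavidin beads and running RT-PCR. Input and output libraries were Illumina-sequenced, with genotypes kept only at ≥10 input reads and ≥1 read per output. Fitness, from inverse-variance-weighted replicate averages, is the base-2 logarithm of genotype enrichment over wild-type enrichment.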

Row | Variant | polymerase ribozyme fitness (log ratio)
1 | C85U G140A | -3.24
2 | C87U C118U U135G | ≤ -4.2
3 | G88A U104G A113U A121C C123A U144G U145G | ≤ -4.2
4 | G88A C103U | ≤ -4.2
5 | G88A C93G | ≤ -4.2
6 | C87U A98C | -1.07
7 | C85U U130G | -3.71
8 | G86U A120G C129A U145G | -4.13
9 | C87U G88U | ≤ -4.2
10 | C87U C131U | 1.46
11 | C87U C108U | -3.61
12 | C85U G94A G152C | -3.09
13 | C87A G124U | ≤ -4.2
14 | C85U C118U | -0.662
15 | C85U C96U A113G G117U A142C | ≤ -4.2
16 | C85U C93U U134G | -4.16
17 | C85G G92C A121C C132U U146A | ≤ -4.2
18 | G86A A121U | -0.51
19 | C85U U127A G141A | ≤ -4.2
20 | C85U A107G | ≤ -4.2
21 | C85U U139A | ≤ -4.2

Row | Variant | polymerase ribozyme fitness (log ratio)
22 | C87G U111G | ≤ -4.2
23 | C85U U90C C96A A106U | ≤ -4.2
24 | G86A C114U | -2.15
25 | C85U C99G G126A U135G | ≤ -4.2
26 | C85G G133C | -2.86
27 | C85U C103G C105U U139A | ≤ -4.2
28 | C87A G126A U135C | ≤ -4.2
29 | C85U U90A A106G U135A G136A A137C | ≤ -4.2
30 | C85U U90C | -3.89
31 | G86C C131U | -2.55
32 | G86A A89U C105U U134A | -3.77
33 | C85U A89U G126U U145G | -3.94
34 | G88C U104G G128A A137U A138G G140U | ≤ -4.2
35 | C87G U102G U145G | ≤ -4.2
36 | G86C G128U | ≤ -4.2
37 | C87U C116A G117C C118G | -1.82
38 | G88A C103G C123A A142C | ≤ -4.2
39 | C85U A89G G128U | ≤ -4.2
40 | C87G A138G A150C | ≤ -4.2
41 | G88C C105U C116U | ≤ -4.2
42 | G86C A98C | -1

Row | Variant | polymerase ribozyme fitness (log ratio)
43 | C85U A91C G128A | ≤ -4.2
44 | C85G G92U G136A G141A | -3.06
45 | C87U C93A U135A | ≤ -4.2
46 | G86A G88U G117U | ≤ -4.2
47 | C87G U104G | ≤ -4.2
48 | G86A G141U | -1.07
49 | C87U A98G C105G C131G | ≤ -4.2
50 | G86A C103U A107G | ≤ -4.2
51 | G86U G124A U148A | -3.78
52 | C85U A97U A115U | -2.7
53 | C87A A97G A142C | ≤ -4.2
54 | G88C C95U A115U | ≤ -4.2
55 | C85U G94U A97U | -0.116
56 | C87U C118U A147U | -0.411
57 | G88A A137U | ≤ -4.2
58 | C87G A106G | -4
59 | C85G U135G | ≤ -4.2
60 | G88C A97U G133C | ≤ -4.2
61 | C87G C93A | -3.63
62 | G88C C96U | ≤ -4.2
63 | C87G C114G | ≤ -4.2

Row | Variant | polymerase ribozyme fitness (log ratio)
64 | C87A C95U | ≤ -4.2
65 | G86C U151G | ≤ -4.2
66 | C87G C99A | ≤ -4.2
67 | C87G C99U | ≤ -4.2
68 | C87A A91U | ≤ -4.2
69 | G88C C105A | ≤ -4.2
70 | C87A A150G | ≤ -4.2
71 | G86U A89G U145A | -3.28
72 | C87G A113C A138U U146C | ≤ -4.2
73 | C85U U146A G152U | -3.06
74 | G88C U104G | ≤ -4.2
75 | C85U U102G C114U | ≤ -4.2
76 | C85G G141A | -2.85
77 | G86A C103G C123U | -3.36
78 | C85G C118G | -2.62
79 | C87G A89U A120C | ≤ -4.2
80 | C87U A89C U139G | -2.56
81 | C87A C96A G141A | ≤ -4.2
82 | C87G A119U A122C C149A | ≤ -4.2
83 | G86U C93G A106G C132U U148A | -3.05
84 | C87A A89G C116U C125U | ≤ -4.2
